# Test system: M. tuberculosis H37Rv (ATCC 27294)
# Assay: Microplate Alamar Blue Assay
# Conditions: M. tuberculosis H37Rv
row,SMILES,inhibitory / antitubercular activity against M. tuberculosis (in words)
1,"C=C(CC[C@@H](C)[C@H]1CC[C@H]2[C@@H]3CC=C4C[C@@H](O)CC[C@]4(C)[C@H]3CC[C@]12C)C(C)C [Compound 1, 24-methylene-cholesterol]",only marginal activity

# Same assay, conditions: at ≤64 μg/mL
row,SMILES,activity against Mtb (in words)
1,"C=C(CC[C@@H](C)[C@H]1CC[C@H]2[C@@H]3CC=C4C[C@@H](O)CC[C@]4(C)[C@H]3CC[C@]12C)C(C)C [Compound 1, 24-methylene-cholesterol]","none of the starting Δ^5-unsaturated steroids (1, 4, 6, 8, and 10) displays meaningful activity"
2,"CC(C)[C@@H](C)[C@]1(C)C[C@@H]1[C@@H](C)[C@H]1CC[C@H]2[C@@H]3CC=C4C[C@@H](O)CC[C@]4(C)[C@H]3CC[C@]12C [Compound 8, Gorgosterol]","none of the starting Δ^5-unsaturated steroids (1, 4, 6, 8, and 10) displays meaningful activity"
3,"CC(C)[C@@H](C)CC[C@@H](C)[C@H]1CC[C@H]2[C@@H]3CC=C4C[C@@H](O)CC[C@]4(C)[C@H]3CC[C@]12C [Compound 10, 24-α-methyl-cholesterol]","none of the starting Δ^5-unsaturated steroids (1, 4, 6, 8, and 10) displays meaningful activity"
4,"CC(C)CCC[C@@H](C)[C@H]1CC[C@H]2[C@@H]3CC=C4C[C@@H](O)CC[C@]4(C)[C@H]3CC[C@]12C [Compound 6, cholesterol]","none of the starting Δ^5-unsaturated steroids (1, 4, 6, 8, and 10) displays meaningful activity"
5,"CC[C@H](CC[C@@H](C)[C@H]1CC[C@H]2[C@@H]3CC=C4C[C@@H](O)CC[C@]4(C)[C@H]3CC[C@]12C)C(C)C [Compound 4, 24-α-ethyl-cholesterol]","none of the starting Δ^5-unsaturated steroids (1, 4, 6, 8, and 10) displays meaningful activity"

# — paper PMC2634294 (Bioorganic & medicinal chemistry letters, 2008)
